The list shows a part of the results. Shown are side measurements of this screen, not its main read-out; they come without a call.

This test can be described thus: exo-erythrocytic parasite development inhibition – imaging, Malaria Box, P. yoelii, HepG2-A16-CD81EGFP, dose response (AID 602156).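 Note: infected cells exposed to compound for 48 hours before fixation.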 The note with it: P. yoelii liver stage in HepG2-A16-CD81EGFP, measured here: liver parasite size at 10 uM.
In turn, `O=[N+]([O-])c1cc(C(F)(F)F)ccc1N1CCCN(C(=S)Nc2ccccc2)CC1` returned a parasite size of 93.7 um. Take `CC1(C)N=C(N)N=C(N)N1c1ccc(Oc2ccc(Cl)cc2)c(Cl)c1`: the parasite size stood at 27.8 um. The result for `COc1ccc2c(C)nc(Nc3nc(C)cc(-c4ccccc4)n3)nc2c1` reads 170 um; that for `COc1ccc2sc(Nc3nc(-c4ccccn4)cs3)nc2c1`, 28.9 um; that for `Cc1nc([P+](c2ccccc2)(c2ccccc2)c2ccccc2)c(N2CCCCC2)o1`, 25.6 um. Under `Cc1ccc(-n2c(-c3ccccc3)cc(C=NNC(=O)c3cccc(O)c3)c2-c2ccccc2)cc1` stands 26.7 um.

The compound `Cc1ccc2[nH]c(C)c(Br)c(=O)c2c1` displayed a parasite size of 30 um. The result for `O=C(Nc1c2ccccc2nc2ccccc12)c1cc(Cl)ccc1O` reads 43.5 um; that for `O=C(NC1CC1)c1ccc(CSCc2ccccc2Cl)o1`, 26.1 um; that for `Cc1ccc(-c2c[n+]3c(n2-c2ccccc2)SCC3)cc1`, 62.5 um. Under `CN(C)CCCN(Cc1cc2cc3c(cc2[nH]c1=O)OCO3)C(=S)Nc1cccc(Cl)c1` stands 60.2 um; under `O=C(NC1CC1)C1CCN(c2cccc3c2C(=O)N(Cc2cccc(C(F)(F)F)c2)C3=O)CC1`, 24 um.

On to `CCCN(CCC)CCCNc1ccc(C(=O)Nc2ccc(C)c(F)c2)cc1[N+](=O)[O-]`, for which the parasite size amounted to 83.5 um. Regarding `CCCCNC(=O)C1CCC(CN(Cc2c(Cl)cccc2Cl)S(=O)(=O)c2ccc(Br)cc2)CC1` (stereo unspecified), the parasite size is 29.6 um.

`Cc1ccc(-c2c[n+]3c(n2-c2ccc(C)cc2)CCCCC3)cc1` came in with a parasite size of 27.2 um.

Turning to `OCCNc1nc(Nc2ccccc2)nc2ccccc12`, the parasite size was determined as 62.1 um. Under `CCCCCCCCn1c(C)[n+](C)c2cc(Cl)c(Cl)cc21` stands 40.4 um; under `CCCCN(CC)CCNC(=O)C1c2ccccc2C(=O)N(Cc2ccc(F)cc2)C1c1ccc(OC)cc1` (stereo unspecified), 63.4 um; under `Cc1ccc(-n2c(-c3ccccc3)cc(C=NNC(=O)c3cccc(-n4c(C)ccc4C)c3)c2-c2ccccc2)cc1`, 30.1 um. The result for `C=CC[N+]1(CC#Cc2cccc3ccccc23)CCCCC1` reads 80.1 um; that for `CCNC(=O)C1CCN(c2cccc3c2C(=O)N(C2CCCCCCC2)C3=O)CC1`, 30.5 um; that for `CCOC(=O)C1=C(C)NC2=C(C(=O)C(C(=O)OCC)C(c3ccc(OC)cc3)C2)C1c1ccc(OC)c(OC)c1` (stereo unspecified), 86.5 um. Under `CCCCC(=O)NC(c1cccc([N+](=O)[O-])c1)c1ccc2cccnc2c1O` (stereo unspecified) stands 23.7 um; under `N=c1c2c(n(Cc3ccc(Cl)cc3)c3c1CCC3)CCC2`, 32.6 um.

For `c1ccc(CSc2scnc2[P+](c2ccccc2)(c2ccccc2)c2ccccc2)cc1`, the parasite size came to 21.6 um.

As to `Cc1ccc2cc(C)c(Nc3ccc(Cl)cc3)nc2c1`, the parasite size turned out to be 42.1 um. The result for `CC1(C)C2CCC(C2)C1(C)NC(=S)NN=Cc1ccccn1` (stereo unspecified) reads 28.3 um. The result for `CC[n+]1cc(-c2ccc(C)cc2)sc1C=C1Sc2ccccc2N1C` reads 37.9 um. `CCCCCC[P+](N(CCC)CCC)(N(CCC)CCC)N(CCC)CCC`: the parasite size was found to be 30.3 um. `O=C1C2=C(Nc3ccccc3SC2c2ccco2)c2ccccc21` (stereo unspecified) yielded a parasite size of 31.6 um. In turn, `O=C1c2ccccc2C2=Nc3ccccc3SC(c3ccccc3F)C12` (stereo unspecified) had a parasite size of 28.6 um.

As to `CSc1nnc(-c2cccc([N+](=O)[O-])c2)n1Cc1ccccc1`, the parasite size was determined as 97.4 um. The result for `COc1ccc2cc3[n+](cc2c1OC)CCc1cc2c(cc1-3)OCO2` reads 102 um. Under `CCOC(=O)C1=C(C)NC2=C(C(=O)C(C(=O)OCC)C(c3cccc(OC)c3)C2)C1c1cc(OC)c(OC)c(OC)c1` (stereo unspecified) stands 110 um; under `COc1ccc(Nc2nc(NCc3ccccc3)c3ccccc3n2)cc1`, 30 um. Under `Cc1ccc(N2C(N)=NC(N)=NC2(C)C)cc1` stands 35.1 um; under `O=C(Cc1ccccc1)NC(c1ccc(Cl)cc1)c1ccc2cccnc2c1O` (stereo unspecified), 17.3 um; under `CCOC(=O)C1=C(C)NC2=C(C(=O)C(C(=O)OCC)C(c3ccccc3OC)C2)C1c1ccc([N+](=O)[O-])cc1` (stereo unspecified), 76.3 um. The compound `CCCCCCCC[n+]1c(C)n(CC)c2cc(C(=O)OCC)ccc21` returned a parasite size of 63.8 um. Under `CCOc1ccc(Nc2cc(=O)oc3ccccc23)cc1` stands 43.9 um; under `Cc1[nH]c2ccccc2c(=O)c1Br`, 29.4 um; under `CN(Cc1ccccc1)C(=O)CSc1nc(NCc2ccccc2)c2ccccc2n1`, 67.8 um. Compound `CCOC(=O)c1c[nH]c2c3c(ccc2c1=O)CCCC3` registered a parasite size of 26.2 um.

`CCOc1ccc(Nc2nc(NCc3ccco3)c3ccccc3n2)cc1` came in with a parasite size of 75.8 um.

`Cc1cc(NC(c2cccc(Br)c2)c2ccc3cccnc3c2O)no1` (stereo unspecified): the parasite size turned out to be 16.3 um.

Consider `Cc1ccc(Nc2nc3c(N)nnc(N)c3nc2Nc2ccc(C)cc2)cc1`, for which the parasite size came to 50.3 um. The compound `CN(C)c1cc[n+](CC(=O)Nc2ccc(Cl)cc2)cc1` showed a parasite size of 69.6 um. For `c1ccc(-c2csc(Nc3nc4cc5c(cc4s3)OCO5)n2)nc1`, the parasite size turned out to be 34.4 um.

`CC(C)NCC(O)Cn1c2ccc(Cl)cc2c2cc(Cl)ccc21` (stereo unspecified): the parasite size was 88.4 um. The result for `O=C(Nc1ccc2oc(-c3cccc4ccccc34)nc2c1)c1ccc([N+](=O)[O-])o1` reads 14 um; that for `CC[n+]1c(C=C2C=C(C)OC(C)=C2)sc2ccccc21`, 25.4 um; that for `O=C1C2=C(Nc3ccccc3SC2c2cccs2)c2ccccc21` (stereo unspecified), 25.9 um. Under `COc1ccc2nc(C)cc(Nc3ccc(Cl)c(Cl)c3)c2c1` stands 39.2 um. `CCOC(=O)c1cn(CC)c2cc(N(C)CCc3ccc(OC)c(OC)c3)c(F)cc2c1=O` yielded a parasite size of 23.7 um. Take `CC(=O)N(C1=C(N(C)C)C(=O)c2ccccc2C1=O)c1ccc(F)cc1`: the parasite size was found to be 23.8 um. In turn, `c1ccc(Cc2cc[n+](Cc3ccccc3)cc2)cc1` came in with a parasite size of 127 um.

`COc1cccc(NC(=O)c2ccc(NCCCN3CC(C)CC(C)C3)c([N+](=O)[O-])c2)c1` (stereo unspecified): the parasite size was 87.6 um. The result for `CCN(CC)CCCN(Cc1cc2ccc(C)cc2[nH]c1=O)C(=S)Nc1cccc(Cl)c1` reads 58.8 um; that for `CCc1ccccc1N=C1c2c(cccc2[N+](=O)[O-])C(=O)C1C(C)=O` (stereo unspecified), 83.4 um; that for `Cc1cccc(N2C(N)=NC(N)=NC2(C)C)c1`, 38.5 um. The result for `O=C(c1cccc([N+](=O)[O-])c1)c1ccc(Cl)c(Cl)c1` reads 109 um; that for `Cc1nc([P+](c2ccccc2)(c2ccccc2)c2ccccc2)c(SCc2ccccc2)o1`, 31.8 um. Under `CCCC(=O)NC(c1ccc(Cl)cc1)c1ccc2cccnc2c1O` (stereo unspecified) stands 14.1 um. `CCCCc1c(C)[nH]c2ccc(Br)cc2c1=O` gave a parasite size of 26 um. `CCCC(=O)N1CCN(c2nc(Cc3ccccc3)c3c(c2C#N)CC(C)(C)OC3)CC1`: the parasite size turned out to be 22.4 um. `CCN1C(=O)N(CC)C(NNC(N)=S)C1NNC(N)=S` (stereo unspecified): the parasite size was determined as 104 um. Under `C/C=C/[P+](c1ccccc1)(c1ccccc1)c1ccccc1` stands 26.1 um. Take `CCN(CC)c1ccc(NC(=O)c2cccs2)cc1`: the parasite size came to 54.1 um. The result for `CCOC(=O)C1=C(c2ccccc2)N=c2sc(=Cc3cc(C)n(-c4ccc(F)cc4)c3C)c(=O)n2C1c1cccc(OC)c1OC` (stereo unspecified) reads 106 um. The result for `Cc1ccc(Nc2nc(NCc3ccccc3)c3ccccc3n2)cc1` reads 31.7 um; that for `C[C@@H]1CCC[C@@H](C[C@H]2Cc3cc(O)cc(O)c3C(=O)O2)O1`, 42 um; that for `COc1ccc(C(NC(=O)c2cccnc2)c2cc(Cl)c3cccnc3c2O)cc1` (stereo unspecified), 21.1 um. Under `COC(=O)c1c(-c2c(Cl)cccc2Cl)noc1NC(=O)NN1CCCCC1` stands 75.7 um; under `COc1ccc(-c2c(C(F)(F)F)nn(C)c2NC(=O)Nc2ccc(F)cc2F)cc1`, 103 um. `Oc1c(C(Nc2ccccn2)c2cccc(Cl)c2Cl)ccc2cccnc12` (stereo unspecified): the parasite size turned out to be 23.8 um.

`Cc1[nH]c2ccccc2c(=O)c1CC=C(Cl)Cl` displayed a parasite size of 43.2 um. The result for `S=C(NN=Cc1ccccn1)NC1CC2CC1C1C=CCC21` (stereo unspecified) reads 27.4 um; that for `O=c1c2ccccc2[nH]c2ccc(I)cc12`, 24.9 um; that for `CC(=O)Nc1nc(C)c(-c2csc(Nc3ccc(C)cc3)n2)s1`, 104 um.

Compound `CCCCCC[n+]1ccccc1/C=C/c1ccc(N(C)C)cc1` returned a parasite size of 16.8 um. The result for `O=c1c2c([nH]c3ccccc13)CCCCCCCCCC2` reads 25.1 um.

With `Cc1ccc(C2Sc3ccccc3NC3=C2C(=O)c2ccccc23)cc1` (stereo unspecified), the parasite size came out at 27 um. Under `Brc1ccc(-c2c[n+]3c(n2-c2ccccc2)SCC3)cc1` stands 78.7 um; under `COc1ccc(CN2CCOc3ccc(C(C)(O)CN(C)C)cc3C2)cc1C` (stereo unspecified), 87 um; under `COc1cccc(Nc2nc(NCCO)c3ccccc3n2)c1`, 54.9 um. The result for `COC(OC)C(C)=NNC(N)=S` reads 78.8 um; that for `Oc1cccc2ccc[n+](CC(O)Cn3c4ccccc4c4ccccc43)c12` (stereo unspecified), 49.4 um; that for `CCCCCCOc1ccc(NC(=O)c2cccs2)cc1`, 27.9 um.

The compound `CC(=O)N(C1=C(N2CCOCC2)C(=O)c2ccccc2C1=O)c1ccc(I)cc1` yielded a parasite size of 50.1 um. Under `CCN(CC)CCN(Cc1cc2ccc(C)cc2[nH]c1=O)C(=S)NC(C)c1ccccc1` (stereo unspecified) stands 66.2 um; under `Cc1cc(N)c2ccccc2[n+]1CCCCCCCCCC[n+]1c(C)cc(N)c2ccccc21`, 40.3 um. With `Cc1ccc(-c2[nH]n3c(=O)c4c(nc3c2C)CCCC4)cc1`, the parasite size came out at 28.7 um. Under `CC(Oc1ccc(Cl)cc1Cl)c1nc(-c2ccc(NC(=O)c3ccco3)cc2)no1` (stereo unspecified) stands 28.2 um. Under `CCCCNC(=O)C(CC)Sc1nnc(-c2ccc(C)cc2)c(-c2ccc(C)cc2)n1` (stereo unspecified) stands 31 um. The result for `Cc1cccc(NC(=S)NC2CC3CCCC(C2)N3CCc2ccccc2)c1` (stereo unspecified) reads 67.7 um. `COc1cc(C(=O)N2N=C(c3c(-c4ccccc4)c4cc(Br)ccc4[nH]c3=O)CC2c2cccc([N+](=O)[O-])c2)cc(OC)c1OC` (stereo unspecified) yielded a parasite size of 29.4 um. Under `Cc1oc2c(c1C(=O)NC1CCS(=O)(=O)C1)C(=O)c1ccccc1C2=O` (stereo unspecified) stands 17.5 um; under `CCCCc1c(C)[nH]c2c(OC)cccc2c1=O`, 42.6 um. On to `O=C(Cn1ccc(=NCc2ccccc2)cc1)c1ccc(I)cc1`, for which the parasite size came to 45 um.

Turning to `Cc1ccnc(NC(c2ccc3ccccc3c2)c2ccc3cccnc3c2O)c1` (stereo unspecified), the parasite size stood at 26.7 um.

`COc1ccc(-c2n(CC(=O)OC3CC(C)CCC3C(C)C)c3ccccc3[n+]2C)cc1` (stereo unspecified) came in with a parasite size of 14.3 um. The result for `CCN1CCN(c2cc(C)c3cc(NC(=O)c4cc(OC)cc(OC)c4)ccc3n2)CC1` reads 114 um.

In turn, `Cc1ccnc(Nc2nc(-c3ccccn3)cs2)c1` gave a parasite size of 19.2 um. Under `Cc1ccc(CSCc2ccc(C(=O)NC3CC3)o2)cc1` stands 25.4 um; under `CC1(C)N=C(N)N=C(N)N1c1ccccc1`, 37 um; under `CC(C)(C)C1CCc2[nH]c3ccccc3c(=O)c2C1` (stereo unspecified), 22.1 um.

The values are drawn from PubChem BioAssay AID602156 (GNF / Scripps Winzeler lab, 2011).
